Results reported in publication PMC2703648.
Results are given in words; binding and its absence hold for the method and conditions named. Binding seen in cells or lysates may run through a third protein. Some binding calls cover weakened binding; strength is not graded here. For some assays here: Tags and fused reporters may be left off the sequences shown.

T1: GST-Amphiphysin2 SH3 (UniProt O00499)
T1 sequence: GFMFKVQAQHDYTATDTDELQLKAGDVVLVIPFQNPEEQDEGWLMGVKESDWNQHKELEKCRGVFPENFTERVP


Columns and labels:
[1] = target: GST-IgFn (IgFn region of rat Kalirin12 fused to GST) (rat) (UniProt P97924); test: pull-down; 2 μg GST or GST-IgFn on beads tumbled 2 h, 4C with lysates of transfected pEAK Rapid cells (20 mM NaTES, 10 mM mannitol, pH 7.4); blot with GFP antibody; in one panel 1 mM GTP or 1 mM GTPγS added to the lysate; only the target purified
GST-Amphiphysin2 SH3 = target: T1, GST-Amphiphysin2 SH3; test: pull-down; GST-amphiphysin-2/SH3 domain (8 mg) on glutathione Sepharose 4B tumbled 4 h, 4C with adult rat brain supernatant (buffer A, 1% Triton X-100); bound and eluted protein seen by Coomassie staining; only the target purified
[2] = target: Kalirin (endogenous, precipitated with the Kalirin-spectrin antibody) (rat (endogenous in rat embryonic cortex)) (UniProt P97924); test: co-IP; rat embryonic cortex cytosol immunoprecipitated with Kalirin-spectrin antibody (blots: pan-dynamin, dynamin1, dynamin2) or with dynamin antibody (blot: Kalirin12)
[3] = target: GST-IgFn (IgFn region of rat Kalirin12 fused to GST) (rat) (UniProt P97924); test: pull-down; GST-IgFn beads incubated with adult rat cortical cytosol (2.0 mg protein); eluate blotted with pan-dynamin, dynamin1, dynamin2 and dynamin3 antibodies; only the target purified

Row | Binder | binding [1] | binding [2] | binding [3] | further results
1 | dynamin2/GTPase-GFP fusion protein (domain or fragment, UniProt P50570 1-320) MGNRGMEELIPLVNKLQDAFSSIGQSCHLDLPQIAVVGGQSAGKSSVLENFVGRDFLPRGSGIVTRRPLILQLIFSKTEHAEFLHCKSKKFTDFDEVRQEIEAETDRVTGTNKGISPVPINLRVYSPHVLNLTLIDLPGITKVPVGDQPPDIEYQIKDMILQFISRESSLILAVTPANMDLANSDALKLAKEVDPQGLRTIGVITKLDLMDEGTDARDVLENKLLPLRRGYIGVVNRSQKDIEGKKDIRAALAAERKFFLSHPAYRHMADRMGTPHLQKTLNQQLTNHIRESLPALRSKLQSQLLSLEKEVEEYKNFRPD | binds |  |  | 
2 | dynamin2/ΔPRD-GFP (domain or fragment, UniProt P50570 1-746) MGNRGMEELIPLVNKLQDAFSSIGQSCHLDLPQIAVVGGQSAGKSSVLENFVGRDFLPRGSGIVTRRPLILQLIFSKTEHAEFLHCKSKKFTDFDEVRQEIEAETDRVTGTNKGISPVPINLRVYSPHVLNLTLIDLPGITKVPVGDQPPDIEYQIKDMILQFISRESSLILAVTPANMDLANSDALKLAKEVDPQGLRTIGVITKLDLMDEGTDARDVLENKLLPLRRGYIGVVNRSQKDIEGKKDIRAALAAERKFFLSHPAYRHMADRMGTPHLQKTLNQQLTNHIRESLPALRSKLQSQLLSLEKEVEEYKNFRPDDPTRKTKALLQMVQQFGVDFEKRIEGSGDQVDTLELSGGARINRIFHERFPFELVKMEFDEKDLRREISYAIKNIHGVRTGLFTPDLAFEAIVKKQVVKLKEPCLKCVDLVIQELINTVRQCTSKLSSYPRLREETERIVTTYIREREGRTKDQILLLIDIEQSYINTNHEDFIGFANAQQRSTQLNKKRAIPNQGEILVIRRGWLTINNISLMKGGSKEYWFVLTAESLSWYKDEEEKEKKYMLPLDNLKIRDVEKGFMSNKHVFAIFNTEQRNVYKDLRQIELACDSQEDVDSWKASFLRAGVYPEKDQAENEDGAQENTFSMDPQLERQVETIRNLVDSYVAIINKSIRDLMPKTIMHLMINNTKAFIHHELLAYLYSSADQSSLMEESADQAQRRDDMLRMYHALKEALNIIGDISTSTVST | binds |  |  | 
3 | dynamin purified from adult rat brain (protein, UniProt P21575 1-864) MGNRGMEDLIPLVNRLQDAFSAIGQNADLDLPQIAVVGGQSAGKSSVLENFVGRDFLPRGSGIVTRRPLVLQLVNSTTEYAEFLHCKGKKFTDFEEVRLEIEAETDRVTGTNKGISPVPINLRVYSPHVLNLTLVDLPGMTKVPVGDQPPDIEFQIRDMLMQFVTKENCLILAVSPANSDLANSDALKIAKEVDPQGQRTIGVITKLDLMDEGTDARDVLENKLLPLRRGYIGVVNRSQKDIDGKKDITAALAAERKFFLSHPSYRHLADRMGTPYLQKVLNQQLTNHIRDTLPGLRNKLQSQLLSIEKEVDEYKNFRPDDPARKTKALLQMVQQFAVDFEKRIEGSGDQIDTYELSGGARINRIFHERFPFELVKMEFDEKELRREISYAIKNIHGIRTGLFTPDLAFEATVKKQVQKLKEPSIKCVDMVVSELTSTIRKCSEKLQQYPRLREEMERIVTTHIREREGRTKEQVMLLIDIELAYMNTNHEDFIGFANAQQRSNQMNKKKTSGNQDEILVIRKGWLTINNIGIMKGGSKEYWFVLTAENLSWYKDDEEKEKKYMLSVDNLKLRDVEKGFMSSKHIFALFNTEQRNVYKDYRQLELACETQEEVDSWKASFLRAGVYPERVGDKEKASETEENGSDSFMHSMDPQLERQVETIRNLVDSYMAIVNKTVRDLMPKTIMHLMINNTKEFIFSELLANLYSCGDQNTLMEESAEQAQRRDEMLRMYHALKEALSIIGDINTTTVSTPMPPPVDDSWLQVQSVPAGRRSPTSSPTPQRRAPAVPPARPGSRGPAPGPPPAGSALGGAPPVPSRPGASPDPFGPPPQVPSRPNRAPPGVPSRSGQASPSRPESPRPPFDL |  |  |  | binding (GST-Amphiphysin2 SH3): binds
4 | dynamin1 (rat, endogenous) (protein, UniProt P21575 1-864) MGNRGMEDLIPLVNRLQDAFSAIGQNADLDLPQIAVVGGQSAGKSSVLENFVGRDFLPRGSGIVTRRPLVLQLVNSTTEYAEFLHCKGKKFTDFEEVRLEIEAETDRVTGTNKGISPVPINLRVYSPHVLNLTLVDLPGMTKVPVGDQPPDIEFQIRDMLMQFVTKENCLILAVSPANSDLANSDALKIAKEVDPQGQRTIGVITKLDLMDEGTDARDVLENKLLPLRRGYIGVVNRSQKDIDGKKDITAALAAERKFFLSHPSYRHLADRMGTPYLQKVLNQQLTNHIRDTLPGLRNKLQSQLLSIEKEVDEYKNFRPDDPARKTKALLQMVQQFAVDFEKRIEGSGDQIDTYELSGGARINRIFHERFPFELVKMEFDEKELRREISYAIKNIHGIRTGLFTPDLAFEATVKKQVQKLKEPSIKCVDMVVSELTSTIRKCSEKLQQYPRLREEMERIVTTHIREREGRTKEQVMLLIDIELAYMNTNHEDFIGFANAQQRSNQMNKKKTSGNQDEILVIRKGWLTINNIGIMKGGSKEYWFVLTAENLSWYKDDEEKEKKYMLSVDNLKLRDVEKGFMSSKHIFALFNTEQRNVYKDYRQLELACETQEEVDSWKASFLRAGVYPERVGDKEKASETEENGSDSFMHSMDPQLERQVETIRNLVDSYMAIVNKTVRDLMPKTIMHLMINNTKEFIFSELLANLYSCGDQNTLMEESAEQAQRRDEMLRMYHALKEALSIIGDINTTTVSTPMPPPVDDSWLQVQSVPAGRRSPTSSPTPQRRAPAVPPARPGSRGPAPGPPPAGSALGGAPPVPSRPGASPDPFGPPPQVPSRPNRAPPGVPSRSGQASPSRPESPRPPFDL |  | binds | binds | 
5 | dynamin2 (rat, endogenous) (protein, UniProt P39052 1-870) MGNRGMEELIPLVNKLQDAFSSIGQSCHLDLPQIAVVGGQSAGKSSVLENFVGRDFLPRGSGIVTRRPLILQLIFSKTEYAEFLHCKSKKFTDFDEVRQEIEAETDRVTGTNKGISPVPINLRVYSPHVLNLTLIDLPGITKVPVGDQPPDIEYQIKDMILQFISRESSLILAVTPANMDLANSDALKLAKEVDPQGLRTIGVITKLDLMDEGTDARDVLENKLLPLRRGYIGVVNRSQKDIEGRKDIRAALAAERKFFLSHPAYRHMADRMGTPHLQKTLNQQLTNHIRESLPTLRSKLQSQLLSLEKEVEEYKNFRPDDPTRKTKALLQMVQQFGVDFEKRIEGSGDQVDTLELSGGARINRIFHERFPFELVKMEFDEKDLRREISYAIKNIHGVRTGLFTPDLAFEAIVKKQVVKLKEPCLKCVDLVIQELISTVRQCTSKLSSYPRLREETERIVTTYIREREGRTKDQILLLIDIEQSYINTNHEDFIGFANAQQRSTQLNKKRAIPNQGEILVIRRGWLTINNISLMKGGSKEYWFVLTAESLSWYKDEEEKEKKYMLPLDNLKIRDVEKGFMSNKHVFAIFNTEQRNVYKDLRQIELACDSQEDVDSWKASFLRAGVYPEKDQAENEDGAQENTFSMDPQLERQVETIRNLVDSYVAIINKSIRDLMPKTIMHLMINNTKAFIHHELLAYLYSSADQSSLMEESAEQAQRRDDMLRMYHALKEALNIIGDISTSTVSTPVPPPVDDTWLQNTSSHSPTPQRRPVSSVHPPGRPPAVRGPTPGPPLIPMPVGATSSFSAPPIPSRPGPQNVFANNDPFSAPPQIPSRPARIPPGIPPGVPSRRAPAAPSRPTIIRPAEPSLLD |  | binds | binds | 
6 | dynamin3 (rat, endogenous) (protein, UniProt Q08877 1-869) MGNREMEELIPLVNRLQDAFSALGQSCLLELPQIAVVGGQSAGKSSVLENFVGRDFLPRGSGIVTRRPLVLQLVTSKAEYAEFLHCKGKKFTDFDEVRHEIEAETDRVTGMNKGISSVPINLRVYSPHVLNLTLIDLPGITKVPVGDQPPDIEYQIRDMIMQFITRENCLILAVTPANTDLANSDALKLAKEVDPQGLRTIGVITKLDLMDEGTDARDVLENKLLPLRRGYVGVVNRSQKDIDGKKDIKAAMLAERKFFLSHPAYRHIADRMGTPHLQKVLNQQLTNHIRDTLPNFRNKLQGQLLSIEHEVEAFKNFKPEDPTRKTKALLQMVQQFAVDFEKRIEGSGDQVDTLELSGGAKINRIFHERFPFEIVKMEFNEKELRREISYAIKNIHGIRTGLFTPDMAFEAIVKKQIVKLKGPSLKSVDLVMQELINTVKKCTKRLANFPRLCEETERIVANHIREREGKTKDQVLLLIDIQVSYINTNHEDFIGFANAQQRSSQVHKKSTIGNQGTNLPPSRQIVIRKGWLTVSNIGIMKGGSKGYWFVLTAESLSWYKDDEEKEKKYMLPLDNLKVRDVEKGFMSSKHVFALFNTEQRNVYKDYRSLELACDSQEDVDSWKASLLRAGVYPDKSFTENDENGQAENFSMDPQLERQVETIRNLVDSYMSIINKCIRDLIPKTIMHLMINNVKDFINSELLAQLYSSEDQNTLMEESVEQAQRRDEMLRMYQALKEALAIIGDINTVTVSTPAPPPVDDSWLQHSRRSPPPSPTTQRRLTLSAPLPRPASSRGPAPAIPSPGPHSGAPPVPFRPGPLPPFPNSSDSYGAPPQVPSRPTRAPPSVPSRRPPPSPTRPTIIRPLESSLLD |  |  | no binding | 
